PubChem BioAssay AID1346428 (National Center for Advancing Translational Sciences (NCATS), 2018)
Hit rate of the full screen: of about 48,000 compounds, about 1,200 (2.5%) were called active. Inconclusive results (about 2%) are left out.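 How the source made its calls: active means activation of at least 60% and not above a set upper limit (about 1 call in 100 departs from these limits); inconclusive means activation of 40% to 60%, or above that upper limit; inactive means activation under 40%.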 The list shows a part of the results.

Target: Probable G-protein coupled receptor 32 (Homo sapiens) (UniProt O75388)
Assay: qHTS for Agonists of Human Resolvin D1 Receptor DRV1; further: 0% is about no effect
Conditions: CHO-K1 GPR32 beta-arrestin PathHunter luminescence, 90 min; at 76.9 µM; active compounds read high; zero percent set by DMSO-only wells
How it was run: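 Agonism was scored as beta-arrestin recruitment to ProLink-fused GPR32 in stably transfected CHO-K1 cells, giving a chemiluminescent beta-Gal signal; compounds were incubated 90 min at 37 °C.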

Chain of UniProt O75388 (O75388 whole entry, looked up): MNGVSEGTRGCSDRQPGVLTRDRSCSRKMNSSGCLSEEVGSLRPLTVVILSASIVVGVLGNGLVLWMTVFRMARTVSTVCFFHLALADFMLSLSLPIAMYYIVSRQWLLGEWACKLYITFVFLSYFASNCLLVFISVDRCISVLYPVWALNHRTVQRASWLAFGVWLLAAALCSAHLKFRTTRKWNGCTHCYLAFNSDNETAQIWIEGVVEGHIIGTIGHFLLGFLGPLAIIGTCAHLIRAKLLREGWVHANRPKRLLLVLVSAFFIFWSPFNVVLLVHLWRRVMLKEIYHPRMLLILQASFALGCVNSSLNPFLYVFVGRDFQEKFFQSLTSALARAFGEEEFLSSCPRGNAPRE

**Q.** With `COc1ccc(Cn2c(CCC(=O)Nc3ccc(C)c(C)c3)nc3cccnc32)cc1` as the molecule, how does the activation read?
**A.** inactive: 37.5%

**Q.** Which activation does the source give for `CCCN(CCC)C(=O)CN1C(=O)CSc2ccc(S(=O)(=O)N3CCC(C)CC3)cc21` here?
**A.** inactive: -9.04%

**Q.** Which activation does the source give for `CC(=O)N1CCc2cc(S(=O)(=O)NC(CC(C)C)C(=O)NCCc3ccc(C)cc3)ccc21` (stereo not drawn) here?
**A.** inactive: 29.9%

**Q.** `COc1cccc(C(=O)c2cn(CC(=O)Nc3cccc(C(F)(F)F)c3)c3nc(C)ccc3c2=O)c1` was tested. Which activation did it give?
**A.** inactive: -7.63%

**Q.** How did the activation turn out when `CCN(CC)S(=O)(=O)c1ccc2c(c1)nc(CN(C)C(=O)Nc1cccc(Cl)c1)n2C` was run?
**A.** inactive: -3.49%

**Q.** Which activation does the source give for `O=C(Nc1ccc(N2CCN(c3ccc(F)cc3)CC2)c(C(=O)O)c1)c1ccccc1F` here?
**A.** inactive: -8.95%

**Q.** How did the activation turn out when `COc1ccc(C)cc1NC(=O)C1CCN(S(=O)(=O)c2ccc3c(c2)CCCN3C(C)=O)CC1` was run?
**A.** inactive: 2.55%

**Q.** With `CC1=C(C(=O)Nc2cccnc2)C(c2ccccc2)n2nc(SCc3ccccc3Cl)nc2N1` (stereo not drawn) as the molecule, how does the activation read?
**A.** inactive: -2.59%

**Q.** With `Cc1ccc(CCNC(=O)Cn2ncc3c([nH]c4ccc(C)cc43)c2=O)cc1` as the molecule, how does the activation read?
**A.** inactive: -4.7%

**Q.** Which activation does the source give for `CCOC(=O)c1ccc(NC(=O)CSc2nc3ccccc3c(=O)n2CCNC(C)=O)cc1` here?
**A.** inactive: -5.41%

**Q.** For `CCc1ccc(NC(=O)CN2C(=O)C(c3ccc(F)cc3)=NC2(C)C)cc1`, which activation is on record?
**A.** inactive: -46.7%

**Q.** With `CCCCOc1ccc(Cn2c(=O)oc3ccc(C)cc32)cc1` as the molecule, how does the activation read?
**A.** inactive: -1.52%

**Q.** For `COc1ccc(OC)c(NC(=O)CSc2cn(CC(=O)N3CCCCCC3)c3ccccc23)c1`, which activation is on record?
**A.** inactive: -7.13%

**Q.** `Cc1cccc(-c2nnn3c2nc(NCCc2ccc(S(N)(=O)=O)cc2)c2ccccc23)c1` was tested. Which activation did it give?
**A.** inactive: -29.1%

**Q.** How did the activation turn out when `CCCN(CCC)CCNC(=O)Cn1cc2c(n1)-c1c(oc(C(=O)N3CCCC3)c1C)CC2` was run?
**A.** inactive: -13.6%

**Q.** For `O=C(CS(=O)(=O)c1cccc2nsnc12)Nc1ccc(F)cc1`, which activation is on record?
**A.** inactive: -3.12%

**Q.** With `CCSc1ncc(Cl)c(C(=O)N(Cc2ccc(N(C)C)cc2)Cc2ccco2)n1` as the molecule, how does the activation read?
**A.** inactive: -32.5%

**Q.** For `COc1ccc(S(=O)(=O)N2CCN(c3ccc(Cl)c(Cl)c3)CC2)c2ccccc12`, which activation is on record?
**A.** inactive: -2.46%

**Q.** For `COCCNC(=O)c1ccc2c(c1)N(Cc1cc(C)ccc1C)C(=O)c1ccccc1S2(=O)=O`, which activation is on record?
**A.** inactive: -12.4%

**Q.** How did the activation turn out when `COC(=O)c1cc(S(=O)(=O)NCC2CCN(Cc3ccc(F)cc3)CC2)c[nH]1` was run?
**A.** inactive: -14.5%

**Q.** For `COCCNC(=O)CSc1nc2cc3c(cc2c(=O)n1CCCC(=O)NCc1ccc(OC)cc1)OCO3`, which activation is on record?
**A.** inactive: -10.2%

**Q.** For `CCOc1ccc(Cn2c(-c3ccc(OCC)c(OC)c3)nc3ccccc32)cc1OC`, which activation is on record?
**A.** inactive: -0.688%

**Q.** For `COc1ccc(S(=O)(=O)Nc2nnc(CC(C)C)s2)cc1`, which activation is on record?
**A.** inactive: 6.79%

**Q.** `Cc1cccc(NC(=O)c2cc(-c3ccc4c(c3)OCCO4)on2)c1` was tested. Which activation did it give?
**A.** inactive: 20.8%

**Q.** How did the activation turn out when `Cc1ccc(NC(=O)CSc2nc3ccccc3nc2Cc2ccccc2)c(C)c1` was run?
**A.** inactive: -10.2%

**Q.** `Cc1cc(NCc2ccccc2Cl)n2cnnc2n1` was tested. Which activation did it give?
**A.** inactive: 9.67%

**Q.** For `CN(C)c1ccc(CNC(=O)C2CCN(S(=O)(=O)c3ccc4c(ccn4C)c3)CC2)cc1`, which activation is on record?
**A.** inactive: -2.66%

**Q.** `Cc1ccc(C)c(Nc2nn3c(=O)c4ccc(C(=O)NCCc5ccccc5)cc4nc3s2)c1` was tested. Which activation did it give?
**A.** active: 74.1%

**Q.** For `CCOC(=O)c1ccc(NC(=O)C(CC)Sc2nc3ncccc3o2)cc1` (stereo not drawn), which activation is on record?
**A.** inactive: -34%

**Q.** How did the activation turn out when `Cc1ccc(N2CCN(C(=O)c3c4c(nc5ccccc35)C(=O)N(C3CCCCC3)C4)CC2)c(C)c1` was run?
**A.** inactive: -5.72%

**Q.** Which activation does the source give for `Cc1ccc(C)c(N2CCN(C(=O)Cn3c(-c4cccs4)cc4ccccc43)CC2)c1` here?
**A.** inactive: -13%

**Q.** Which activation does the source give for `CN(C)c1ccc2nc3ccc(=[N+](C)C)cc-3sc2c1` here?
**A.** inactive: -37.2%

**Q.** `CCN(C(=O)Cn1cc(S(=O)(=O)Cc2ccccc2Cl)c2ccccc21)c1ccccc1` was tested. Which activation did it give?
**A.** inactive: -15.9%

**Q.** `COCCCn1c(SCC(=O)NCc2ccccc2)nc2c(sc3ccccc32)c1=O` was tested. Which activation did it give?
**A.** inactive: 5.85%

**Q.** `COc1ccc(C(=O)Nc2nc3c(s2)CCc2cc(OC)ccc2-3)cc1` was tested. Which activation did it give?
**A.** inactive: 15.8%

**Q.** `COc1ccc(C2C(=O)c3ccccc3C2=O)cc1` was tested. Which activation did it give?
**A.** inactive: 9.68%

**Q.** How did the activation turn out when `Cc1ccc(-n2ncc3c(N4CCN(CCO)CC4)ncnc32)cc1Cl` was run?
**A.** active: 65.1%

**Q.** Which activation does the source give for `CCCCNc1nc(Oc2ccc(OCC(N)=O)nn2)nc(N2CCOCC2)n1` here?
**A.** inactive: -14%

**Q.** For `Cc1ccc(-n2c(SCC(=O)Nc3ccc4c(c3)OCO4)nc3c([nH]c4ccccc43)c2=O)cc1`, which activation is on record?
**A.** inactive: -37%

**Q.** For `Cc1ccc(-c2cc(C(=O)NCc3cnn(C)c3)c3cc(Br)ccc3n2)cc1`, which activation is on record?
**A.** inactive: 4.38%

**Q.** `CCOc1cc(C2c3c(oc4ccc(F)cc4c3=O)C(=O)N2Cc2ccco2)ccc1O` (stereo not drawn) was tested. Which activation did it give?
**A.** inactive: -7.07%

**Q.** How did the activation turn out when `Cc1cccc(C(=O)N2CCc3cc(CNC(=O)Cc4ccc(F)cc4)ccc32)c1` was run?
**A.** inactive: -4.39%

**Q.** With `Cc1cc(Br)ccc1NC(=O)c1cn(C2CCCC2)c(=O)c2c1c1ccccc1n2C` as the molecule, how does the activation read?
**A.** inactive: 3.43%

**Q.** With `Cc1ccc(Cc2nc3ccccc3nc2SCC(=O)NCc2ccc(F)cc2)cc1` as the molecule, how does the activation read?
**A.** inactive: -22.6%

**Q.** Which activation does the source give for `CCc1ccccc1N(C)C(=O)c1cnc(N2CCOCC2)c2ccccc12` here?
**A.** inactive: -15.6%

**Q.** `CCC(=O)C1=C(c2cccc([N+](=O)[O-])c2)N(C(=O)CC)n2c(nnc2-c2ccccc2)S1` was tested. Which activation did it give?
**A.** inactive: -12.7%

**Q.** `COc1ccc(CCNc2ncnc3c2c(-c2ccccc2)cn3-c2ccc(F)cc2)cc1OC` was tested. Which activation did it give?
**A.** inactive: -43.4%

**Q.** How did the activation turn out when `CCOc1ccc(C2c3[nH]c4ccccc4c3CCN2C(=O)Cc2cccc(OCC)c2OCC)cc1` (stereo not drawn) was run?
**A.** inactive: -27.4%

**Q.** With `Cc1ccccc1Cn1nnc2c(=O)[nH]c(C3CCN(C(=O)c4ccccc4)CC3)nc21` as the molecule, how does the activation read?
**A.** inactive: -19%

**Q.** `CCOC(=O)c1cnc2ccc(C(=O)OC)cc2c1Nc1ccccc1CC` was tested. Which activation did it give?
**A.** inactive: -0.35%

**Q.** For `COc1ccc(-c2nc3sc(CCNC(=O)c4cccc(C(F)(F)F)c4)c(C)n3n2)cc1`, which activation is on record?
**A.** inactive: 26.6%

**Q.** `Cc1cc(C)cc(-n2ccnc2SCC(=O)Nc2nc3ccccc3s2)c1` was tested. Which activation did it give?
**A.** inactive: -2.89%

**Q.** Which activation does the source give for `CCC(C(=O)NCc1ccccc1OC)n1nc(C)n2c(cc3sccc32)c1=O` (stereo not drawn) here?
**A.** inactive: -1.35%
